Read counts are not given, so values of variants with three or more changes are uncertain.

First the molecules themselves.
B1: LINE1-mini (parent)
chain: GGCAGAGCUCAACACAGCGUGGCAAAGUGGCUGUGGCUAGACUGCC

In the data set the parent is B1. The data set can be described thus: self-cleavage, relative activity (ratio to wild type); higher = more cleavage; in vitro, sequencing; the parent is a self-cleaving ribozyme.
As for A16C G21U C31U, the self-cleavage turned out to be 0. In the case of A16C G17C C18U U20A C23U U28A G30C U32G G35U it was 0.01; in that of C15G G27U G36U C42U, 0.03. In the case of C15U G27A U34C U43C it was 0.04; in that of A16U G17C G19C G35A, 0.03; in that of A16G U28A A39U, 0.09. In the case of C15U A24U U34G it was 0.18.

For C15G C23A G33C, the self-cleavage was found to be 0.21. In the case of A16C G21U A25G it was 0.01; in that of A16C C18G G40C, 0.04; in that of A16G C18U G21A C23A G40C, 0.01. C15A G29C U38A C45U: the self-cleavage was found to be 1.04. As to A16U A24U C42U, the self-cleavage was determined as 0.03. For the variant C15G G17C G21A G22U, the self-cleavage stood at 0.06.

For the variant C15G C18G U20G C23G A24C G27A, the self-cleavage was 0.01. C15U A24G A26U A41U C42A: the self-cleavage was found to be 0.1. Take C15A G30C G35U G36A A39G: the self-cleavage worked out at 0.07. In the case of C15U G19U A41U it was 0.03; in that of C15G G19A C31G, 0.02; in that of C15U G29A G35U G36U, 0.12. In the case of C15U G40U U43C it was 0.15. In the case of C15G A25G G36C G40U it was 0.01; in that of A16G A25U U28C G40A, 0.09. With A16C G22C A41C, the self-cleavage stood at 0. A16G G27A G36U A39U: the self-cleavage stood at 0.32. In the case of C15G G17U U34A G35C it was 0.07; in that of A16G G17U G21U U38A, 0.24; in that of A16G G17A U38A, 0.05. Regarding C15G A24U A25C, the self-cleavage amounted to 0.03. As for C15G A26U G29U G40U, the self-cleavage is 0.04. For the variant C15U C18G G21A A25U U28C, the self-cleavage was determined as 2.18. In the case of A16C C23G A25C G29C U32A A41C it was 0.05. In the case of A16C G19U G22C A24C C46U it was 0.08; in that of C15G G33A U38A, 0.06; in that of A16G G21U A26C, 0.37. As for C15U G27U G30U C31A U38A C46G, the self-cleavage amounted to 0. In the case of C15A G27U U28C C42G it was 0.03; in that of C15U C18A C23A A39G, 0.06. Turning to A16G C18U G22A, the self-cleavage turned out to be 0.37. In the case of C15G C18U A25G it was 0.01; in that of C15G A16U G40U, 0.08. In the case of C15U C23U U28A G30C it was 0.59; in that of A16G U20G G27A C45U, 0.36.

Regarding A16G G27A G29U G30A, the self-cleavage was determined as 0.1. In the case of C15U A25G G44A it was 0.05; in that of C15U G17U G19U C23G U38C, 0.01; in that of C15U A25G C37U, 0.05. For the variant A16G A25U G44A, the self-cleavage is 0.02. In the case of A16C G21A C31G it was 0.17; in that of A16G C18A C23G C37U, 0.05; in that of A16U C23U G30A, 0.18. In the case of C15U C23G U32C it was 0.12; in that of A16C G19U G35C A41G, 0.05. Consider C15G C31U G33U A39C, for which the self-cleavage worked out at 0.01. In the case of C15G U28C G29U C42A C46U it was 0.08; in that of C15A G27C G29A, 0.06; in that of A16G C31U U34A, 0.01. Regarding C15U G29C G33U, the self-cleavage worked out at 1.39.

For the variant A16C G21U A25G U28A C42G, the self-cleavage was determined as 0.03. Take A16G G22A C42U: the self-cleavage was determined as 0.74. For the variant A16C G17A U32C A39U, the self-cleavage stood at 0.07. Turning to C15U U32G C42A, the self-cleavage was determined as 0. In the case of A16C G17A U28A C45G it was 0.02; in that of A16G U20A G21C U38A, 0.02. In the case of C15U G19C A39C C46U it was 0.14; in that of A16C A25C U32G, 0.24. In the case of C15U G19U U20G G29U, the self-cleavage is 0.54.

With A16C G22C A41C C45U, the self-cleavage came out at 0. Regarding C15U G21U U28A G40C, the self-cleavage is 0.03. In the case of A16C G30U U34C U43A it was 0.01; in that of C15U G35U G36A, 0.13; in that of A16C G19C A26U, 0.45. In the case of C15U G30A C42G G44U C45U, the self-cleavage was 0.06.

On to A16G G19C A24C G36C, for which the self-cleavage is 0.01.

C15U G17U G29A C42U: the self-cleavage amounted to 0.05. In the case of A16C C31G U38G G40U it was 0.01; in that of C15A G35A C45A, 0.01; in that of A16G C23U C31A G33U, 0.03.

For A16G G21U C42A, the self-cleavage was 0.03.

As to A16C G17U G22C G40U, the self-cleavage was determined as 0.02. As to C15U G22A G36C U38C, the self-cleavage came out at 0.03.

C15G U20A C31A: the self-cleavage worked out at 0.05. Take A16C A26G G33U C46A: the self-cleavage is 0.05.

For the variant C15G A24C G27U C31U G33A U43G C46G, the self-cleavage turned out to be 0.01. In the case of A16C G19U A25C G29U it was 0.08; in that of C15G G19A G36U, 0.04; in that of A16C C18A G35C, 0.06. In the case of A16C C18U G30C G33U it was 0.08; in that of A16C C37U U43A, 0.16; in that of C15U U38G C45U, 0.03. As for A16G G19U G27U, the self-cleavage stood at 0.05. Take C15G A24G C42U: the self-cleavage came to 0.02. In the case of C15U G17U U28A C37A it was 0.05; in that of A16C G17C C46U, 0.02. In the case of A16G G33A G35A it was 0.17.

Consider A16G C18A A25G C31U, for which the self-cleavage amounted to 0.04. In the case of A16U A24G G36A A39G it was 0.02. As for A16G G19C G29C A41C C46A, the self-cleavage amounted to 0.02. In the case of A16U A26U G27A C31A it was 0.03; in that of C15U G17C U38G, 0.02; in that of A16U A41G U43G, 0.02. In the case of C15G C23U G30U G44U it was 0.02; in that of C15U C18A U43G G44U, 0.09. As for C15U G22C C23A G29C, the self-cleavage came to 0.81. In the case of A16C G19C C31A it was 0; in that of A16C C23A A41G U43C, 0.01. In the case of C15A U20A G30C G36C A41C it was 0.07; in that of C15G C18G C23U, 0.04; in that of C15G A26U U43C, 0.02. Regarding C15G C23A C37G A39C, the self-cleavage came out at 0.01.

Turning to A16U C23A A24G, the self-cleavage amounted to 0.1. As to C15G A16U G35A, the self-cleavage worked out at 0.03. In the case of C15G C18U G19A U28G C45A it was 0.01; in that of A16G C18G G35U, 0.14. In the case of A16G C18A U34A A39G it was 0.05.

For A16C A26C G29C U38A, the self-cleavage was 0.08.

For the variant C15G A16C G36U U43C, the self-cleavage came to 0.01.

Turning to C15U A16G A25U, the self-cleavage worked out at 0.52. In the case of C15U G19U G21A it was 1.26; in that of C15U G29A G36C, 0.04. In the case of C15A G36A C42G it was 0.01; in that of A16G A41C C45U, 0.03. Take A16U A25C C42G: the self-cleavage was 0.11. In the case of C15G C18A G29A G36A, the self-cleavage was 0.09.

As to A16C A26U G29U A41G, the self-cleavage is 0.18. In the case of C15G G17U A26U it was 0.07. In the case of C15G G21U C37U it was 0.02; in that of C15U U20A A25C, 0.1; in that of C15U G17U C18U A39U, 0.04. In the case of C15U A16C G19C G22U it was 1.01; in that of C15G C23A A39G, 0.01.

On to A16G A26C G40U, for which the self-cleavage came to 0.02. With C15G U20A G29C, the self-cleavage is 0.38. Consider C15G G21A G22U U32G G36C A39G C42U, for which the self-cleavage came to 0. As to C15A G29C C31U A41C, the self-cleavage came to 0.03. Consider A16U C18A G27U G44U, for which the self-cleavage stood at 0.04. On to C15U G19C U20A G21A, for which the self-cleavage was found to be 0.25.

As to C15U C18G A25G, the self-cleavage came to 0.03. Take C15U G40C A41C: the self-cleavage was determined as 0.1. C15U C23U A41G: the self-cleavage came to 0.68. In the case of A16G C31A U34A A39U it was 0.01; in that of A16G C18A U34A, 0.02; in that of C15U G19U U28C A41C, 0.08. Regarding C15U A16U C31U G35A, the self-cleavage worked out at 0.01. In the case of A16C A24C U38A it was 0.03. In the case of A16G G19C C42G it was 0.02; in that of A16C C23A A25U, 0.06; in that of A16U G17U C18U A41C, 0.03.

For A16G G33C U43A, the self-cleavage stood at 0.02. With C15G G30U G33U, the self-cleavage was 0.04. In the case of C15U A24C C45A it was 0.03; in that of C15U C18U A26G C31G U32G G36A C46A, 0.01; in that of C15G A16G G21C U38G G40C, 0.01. Regarding C15G G19A A24C A25G G33A, the self-cleavage is 0.02. Consider A16C G30C U34C G36U, for which the self-cleavage worked out at 0.05. In the case of C15U G17A U28G C46U it was 0.04; in that of A16C G27C U28A G30C G35C, 0.02; in that of A16C C23A C42A, 0.06. Regarding C15U G21C C31U, the self-cleavage came to 0.41. For the variant C15U G36A A41U C42A, the self-cleavage amounted to 0.26. On to C15U G30U G33C G44A, for which the self-cleavage is 0.05. As for C15G A25C A41C, the self-cleavage was 0. In the case of A16G G27U U28G G30A G36U it was 0.15; in that of C15U A25U U34G, 0.03. Consider C15U G29A A39G, for which the self-cleavage came out at 0.08. In the case of C15U U20A U34C A39C G44C it was 0.03; in that of C15U G21U G44A, 0.17.
